The record followed here is patent publication US20220289825A1 (NANJING SHUNXIN PHARMACEUTICALS CO LTD OF CHIATAI TIANQING …, published 2022).

Test [1] deals with T1, TGF-β1 recombinant protein (Sinobiological, 10804-H08H) (UniProt P01137 30-390).
T1 construct: also called TGF-β protein
The test is described as follows: SPR, Biacore T200; M7824 captured by anti-hIgG1(Fc) on CM5 chip, TGF-β as analyte, 1:1 Langmuir fit.

The target of test [2] is PD-L1 on CHO-PDL1-CD3L cells (UniProt Q9NZQ7). In words: cell-based or functional assay.
Test [3] has as its target T2, PD-L1 protein (Sinobiological, 10084-H08H) (UniProt Q9NZQ7 fragment).
T2 construct: Bought reagent; also called PD-L1 recombinant protein
The test is described as follows: ELISA; PD-L1 recombinant protein coated at 2 µg/mL, HRP goat anti-human secondary antibody. (An ELISA detects its analyte on a solid surface through an enzyme-linked reagent.)

Test [4] concerns the target T1, TGF-β1 recombinant protein …. The test is described as follows: ELISA; TGF-β1 recombinant protein coated at 2 µg/mL, HRP goat anti-human secondary antibody.
Test [5] addresses T2, PD-L1 protein (Sinobiological, …). In words: SPR, Biacore T200; fusion protein captured by anti-hIgG1(Fc) on CM5 chip, PD-L1 as analyte, 1:1 Langmuir fit.
The target of test [6] is T1, TGF-β1 recombinant protein …. The test is described as follows: SPR, Biacore T200; fusion protein captured by anti-hIgG1(Fc) on CM5 chip, TGF-β as analyte, 1:1 Langmuir fit. On the technique in general: In SPR one partner is held on a chip, and binding of the other changes the refractive index at the surface.

T1 sequence (P01137 30-390 limits assumed): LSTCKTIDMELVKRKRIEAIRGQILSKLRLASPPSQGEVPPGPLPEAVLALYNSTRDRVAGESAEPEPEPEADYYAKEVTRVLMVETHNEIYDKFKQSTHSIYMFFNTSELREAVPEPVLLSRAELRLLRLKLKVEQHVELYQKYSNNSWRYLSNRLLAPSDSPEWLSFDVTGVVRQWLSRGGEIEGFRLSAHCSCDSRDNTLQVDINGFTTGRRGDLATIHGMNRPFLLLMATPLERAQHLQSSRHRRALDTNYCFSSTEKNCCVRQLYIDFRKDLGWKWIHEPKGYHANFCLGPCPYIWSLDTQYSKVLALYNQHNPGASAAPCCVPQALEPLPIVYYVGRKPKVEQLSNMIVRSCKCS

B1: M7824 (other)
heavy: EVQLLESGGGLVQPGGSLRLSCAASGFTFSSYIMMWVRQAPGKGLEWVSSIYPSGGITFYADTVKGRFTISRDNSKNTLYLQMNSLRAEDTAVYYCARIKLGTVTTVDYWGQGTLVTVSSASTKGPSVFPLAPSSKSTSGGTAALGCLVKDYFPEPVTVSWNSGALTSGVHTFPAVLQSSGLYSLSSVVTVPSSSLGTQTYICNVNHKPSNTKVDKRV[no letters for human IgG1 Fc]GGGGSGGGGSGGGGSGGGGSGIPPHVQKSVNNDMIVTDNNGAVKFPQLCKFCDVRFSTCDNQKSCMSNCSITSICEKPQEVCVAVWRKNDENITLETVCHDPKLPYHDFILEDAASPKCIMKEKKKPGETFFMCSCSSDECNDNIIFSEEYNTSNPD
light: QSALTQPASVSGSPGQSITISCTGTSSDVGGYNYVSWYQQHPGKAPKLMIYDVSNRPSGVSNRFSGSKSGNTASLTISGLQAEDEADYYCSSYTSSSTRVFGTGTKVTVLGQPKANPTVTLFPPSSEELQANKATLVCLISDFYPGAVTVAWKADGSPVKAGVETTKPSKQSNNKYAASSYLSLTPEQWKSHRSYSCQVTHEGSTVEKTVAPTECS
Regarding B1, in test [1], the Kd was found to be 15.2 nM.

B2: hu5G11-hIgG1-TGF-β RII (other)
heavy: QITLKESGPTLVKPTQTLTLTCTVSGFSLSTYGVHWIRQPPGKALEWLGVIWRGVTTDYNAAFMSRLTITKDNSKNQVVLTMNNMDPVDTATYYCARLGFYAMDYWGQGTLVTVSS[no letters for human IgG1 constant region with D265A (EU numbers)]GGGGSGGGGSGGGGSGGGGSGIPPHVQKSVNNDMIVTDNNGAVKFPQLCKFCDVRFSTCDNQKSCMSNCSITSICEKPQEVCVAVWRKNDENITLETVCHDPKLPYHDFILEDAASPKCIMKEKKKPGETFFMCSCSSDECNDNIIFSEEYNTSNPD
light: DIQMTQSPSSLSASVGDRVTITCKASQSVSNDVAWYQQKPGKAPKLLIYYAANRYTGVPDRFSGSGYGTDFTFTISSLQPEDIATYFCQQDYTSPYTFGQGTKLEIKRTVAAPSVFIFPPSDEQLKSGTASVVCLLNNFYPREAKVQWKVDNALQSGNSQESVTEQDSKDSTYSLSSTLTLSKADYEKHKVYACEVTHQGLSSPVTKSFNRGEC
notes: Expressed transiently in ExpiCHO-S cells and purified on protein A; also called anti-PD-L1-TGF-β RII fusion protein; PD-L1/TGFβ RII
Turning to B2, in test [2], the “Biological activity (EC50 of reference sample/EC50 of test sample x 100%)” value was 75.4% and the “EC50 (nmol/L), reporter gene assay (CHO-PDL1-CD3L + Jurkat-PD-1-NFAT, luciferase RLU)” value was 6.11 nmol/L. Further, in test [3], the EC50 turned out to be 0.0343 µg/mL. Moreover, in test [4], the EC50 was determined as 0.067 µg/mL. Further, in test [5], the Kd was 0.0427 nM, the koff is 0.000745 s⁻¹ and the kon turned out to be 1.74e+07 M⁻¹ s⁻¹. For the same molecule, in test [6], the Kd amounted to 11.3 nM, the koff was 0.000937 s⁻¹ and the kon amounted to 82800 M⁻¹ s⁻¹.

Broadly, the Kd is the equilibrium constant for the complex coming apart. For orientation: EC50 means the concentration giving half of the maximal effect. One may read the koff as the rate constant with which the complex falls apart. What is called kon is the second-order rate constant of association.
